# In PubChem BioAssay AID504832 (National Center for Advancing Translational Sciences (NCATS), 2011):
# “And” between values parts separate entries of the source, which are not always exact repeats. Equal values may be shown once. The campaign covered roughly 310,000 compounds. About 18,000 (5.8%) were called active. Inconclusive results, whose numbers are uncertain, are shown with a selection of clear calls. The call rests on the fitted dose curve; in most records, active means well fitted inhibition curve with a large enough effect; inconclusive means small, poorly fitted or top-dose-only effect, or another doubt; inactive means no such curve, though single readings can be large or run the other way. Potencies of inconclusive entries are doubtful fits and often do not repeat.
# Assay: Primary qHTS for delayed death inhibitors of the malarial parasite plastid, 48 hour incubation
# Conditions: P. falciparum luciferase growth in erythrocytes; series mostly up to 28.7 µM; activity change, negative = inhibition: at the top concentration
# Method in brief: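 First compound was added to culture medium, then infected red cells at 0.1% parasitemia and 2% hematocrit (final). After incubation at 37 C under 5% CO2, luciferase detection reagent was dispensed and light output recorded.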
# On the % scale 0 is the no-effect control and ±100 the full control effect; potency means the concentration at half of the fitted maximal effect; tags describe the fitted curve by direction and shape.
Structure (SMILES),Potency,"activity change, negative = inhibition"
CCN(CC)S(=O)(=O)c1ccc2oc(C(=O)NCCCN3CCOCC3)c(C)c2c1,"inconclusive: 10.4 µM [inhibitor, single point]",–
CN1CCN(c2ccc(NC(=S)NC(=O)c3cccc4ccccc34)cc2)CC1,"inconclusive: 10.4 µM [inhibitor, single point]",–
Cc1cc(C)c(S(=O)(=O)NCC2CCC(C(=O)NCc3ccc4c(c3)OCO4)CC2)c(C)c1 (stereo not drawn),"inconclusive: 13.1 µM [inhibitor, partial curve]",–
Cc1cc(N2CCCC(C(=O)Nc3cccc4ccccc34)C2)n2ncnc2n1 (stereo not drawn),"inconclusive: 11.7 µM [inhibitor, single point]",–
Cc1onc(-c2ccccc2Cl)c1C(=O)N1CCC(C)CC1,–,inactive: 14.7%
O=C(c1cccs1)N1CCc2ccccc21,–,inactive: 69.3%
O=C(CCSc1nc(-c2ccco2)cc(C(F)(F)F)n1)NCC1CCCO1 (stereo not drawn),"inconclusive: 11.7 µM [inhibitor, single point]",–
O=C(c1cn(-c2ccccc2)nc1-c1cccnc1)N1CCN(S(=O)(=O)c2cccc(F)c2)CC1,"inconclusive: 13.1 µM [inhibitor, partial curve, poor fit]",–
CCOC(=O)c1cc(-c2ccccc2)n(CCC(=O)N2CCN(c3ccccn3)CC2)c1C,"inconclusive: 11.7 µM [inhibitor, partial curve, poor fit]",–
O=C(CNC1CCCCC1)Nc1ccc([N+](=O)[O-])cc1C(=O)Nc1ccccc1F,"inconclusive: 18.5 µM [inhibitor, single point]",–
COc1ccccc1NS(=O)(=O)c1cccc(NC(=O)C2CC2)c1,"inconclusive: 13.1 µM [inhibitor, single point]",–
CCO/N=C(\C)c1c(O)c(CC)c(-c2ccccc2)n(-c2ccccc2)c1=O,–,inactive: -0.709%
CCN1CCCC1CN(Cc1cc2ccc(C)cc2[nH]c1=O)C(=S)Nc1cccc(OC)c1 (stereo not drawn),active: 10.4 µM,–
CCOc1ccc(Cc2nccc3cc(OCC)c(OCC)cc23)cc1OCC,"inconclusive: 5.73 µM [inhibitor, single point]",–
C#CCOCCOCCOCCNc1nc(N2CCN(C(=O)[C@H]([C@@H](C)O)n3cc(CCCCN)nn3)CC2)nc(N2CCN(C(=O)[C@H](CCCCN)n3cc(CCCC)nn3)CC2)n1,"inconclusive: 18.5 µM [inhibitor, partial curve, poor fit]",–
O=C(Nc1ccc(S(=O)(=O)NC2=NCCCCC2)cc1)c1ccc(C(F)(F)F)cc1,–,inactive: 66.4%
CCOC(=O)CSCC(=O)Nc1c(C(=O)C2CC2)oc2ccccc12,–,inactive: -11.3%
CCC(NS(=O)(=O)c1ccc(OC)cc1)C(=O)NCCc1ccccc1 (stereo not drawn),"inconclusive: 13.1 µM [inhibitor, partial curve, poor fit]",–
Cc1cc(NC(=O)CCC(=O)N(Cc2ccco2)C(C(=O)NC2CCCC2)c2ccccc2C)no1 (stereo not drawn),"inconclusive: 18.5 µM [inhibitor, single point]",–
CCN(c1ccc(OC)cc1)S(=O)(=O)c1nnc(NC(=O)C2CCCCC2)s1,–,inactive: 9.88%
CCC(Sc1nnnn1-c1ccccc1)C(=O)NC(C)c1ccccc1 (stereo not drawn),"inconclusive: 18.5 µM [inhibitor, single point]",–

Structure (SMILES),Potency,"activity change, negative = inhibition"
Cc1nc(-c2ccc(F)cc2)c(CC(=O)Nc2ccc(C)c(S(=O)(=O)N3CCOCC3)c2)s1,active: 8.28 µM,–
Cc1ccc2c(c1)C1CN(C)CCC1N2C(=O)c1ccc(Cl)c(S(=O)(=O)N2CCOCC2)c1 (stereo not drawn),"inconclusive: 4.15 µM [inhibitor, partial curve]",–
Clc1cccc(CSc2nccn2-c2ccccc2)c1,"inconclusive: 13.1 µM [inhibitor, single point]",–
Cn1cc(C(=O)CCl)c2ccccc21,"inconclusive: 10.4 µM [inhibitor, partial curve]",–
O=C(NCC(c1cccs1)N1CCOCC1)C1CCN(S(=O)(=O)c2ccccc2C(F)(F)F)CC1 (stereo not drawn),"inconclusive: 6.57 µM [inhibitor, single point]",–
COc1ccc(NC(=O)CN(C)C(=O)c2cc(-c3ccncc3)nc3ccccc23)cc1,"inconclusive: 8.28 µM [inhibitor, single point]",–
Cc1cc(C)c(S(C)(=O)=O)c(Oc2cccc(C(F)(F)F)c2)n1,"inconclusive: 11.7 µM [inhibitor, single point]",–
COc1ccc(-c2nnc(-c3cc(OC)c(OC)c(OC)c3)o2)cc1OC,"inconclusive: 8.28 µM [inhibitor, partial curve, poor fit]",–
CCN(CC(=O)NCc1ccc(F)cc1)C(=O)C1CCN(S(=O)(=O)c2ccc(C(C)C)cc2)CC1,"inconclusive: 18.5 µM [inhibitor, single point]",–
CCCCC1=CC2=C(c3ccco3)C(=O)C(C)(OC(=O)c3ccc(OC)cc3)C(=O)C2=CN1CCCOC(C)C (stereo not drawn),"inconclusive: 9.28 µM [inhibitor, single point]",–
CC(=O)N1CCc2ccc(NC(=O)c3c(-c4c(Cl)cccc4Cl)noc3C)cc21,"inconclusive: 3.29 µM [inhibitor, single point]",–
Cc1ccc(C(=O)Nc2cccnc2)cc1[N+](=O)[O-],"inconclusive: 18.5 µM [inhibitor, single point]",–
O=C(Nc1ccc([N+](=O)[O-])cc1Cl)c1cc(Cl)ccc1O,"inconclusive: 3.01 µM [inhibitor, full curve, poor fit] and inconclusive: 928 nM [inhibitor, full curve, poor fit]",–
CCCC(=O)O[C@]1(C(=O)COC(C)=O)CC[C@H]2C3C[C@H](F)C4=CC(=O)C=CC4(C)[C@@]3(F)[C@@H](O)CC21C (stereo partly drawn),"inconclusive: 15.1 µM [inhibitor, single point]",–
CC(NC(=O)CSc1nnc(-c2cc3cc(Cl)ccc3o2)n1C)c1ccccc1 (stereo not drawn),"inconclusive: 10.4 µM [inhibitor, single point]",–
Cc1ccc(-c2nnn(CC(=O)NC3CCN(Cc4ccccc4)CC3)n2)cc1,"inconclusive: 18.5 µM [inhibitor, single point]",–
CCC(C(=O)Nc1cccnc1)n1c(=O)[nH]c2ccccc2c1=O (stereo not drawn),"inconclusive: 18.5 µM [inhibitor, single point]",–
CCOc1ccc(Br)cc1C(=O)N/N=C/c1cccc(C)n1,–,inactive: 8.23%
COc1ccccc1NS(=O)(=O)c1cccc(C(=O)N/N=C/c2ccccc2OCC(=O)O)c1,"inconclusive: 18.5 µM [inhibitor, single point]",–
Oc1ccc(O)c(-c2cnns2)c1,"inconclusive: 16.5 µM [inhibitor, single point]",–
CCCOc1ccc(-c2nc(C#N)c(N3CCC(C(N)=O)CC3)o2)cc1,–,inactive: -2.02%

Structure (SMILES),Potency,"activity change, negative = inhibition"
COc1cccc(Nc2nc(N)nc(-c3oc4ccccc4c3C)n2)c1,"inconclusive: 5.22 µM [inhibitor, single point]",–
CCCCOc1ccc(C(=O)Nc2ccc3c(c2)OCO3)cc1,–,inactive: 43.5%
Cc1nc(NC(=O)c2c(-c3ccccc3Cl)noc2C)sc1C,"inconclusive: 1.04 µM [inhibitor, partial curve, poor fit]",–
Cc1cc(NCCO)nc(-n2nc(C)cc2C)n1,"inconclusive: 18.5 µM [inhibitor, single point]",–
S=C(NC1CCCCC1)N1CCOCCOCCN(C(=S)NC2CCCCC2)CCOCCOCC1,"inconclusive: 10.4 µM [inhibitor, partial curve]",–
COc1ccccc1CNC(=O)CN(C)Cc1ccc(SC)cc1,"inconclusive: 4.15 µM [inhibitor, partial curve, poor fit]",–
Cc1ccc(NC(=O)CN2CCN(Cc3ccccc3)CC2)cc1F,–,inactive: 1.4%
C=C1CCN([C@H](C(=O)NCc2ccccc2)C(C)C)S(=O)(=O)c2ccccc21,"inconclusive: 10.4 µM [inhibitor, single point]",–
COc1ccccc1-c1cc(N)n(S(=O)(=O)c2cccc3nsnc23)n1,"inconclusive: 14.7 µM [inhibitor, partial curve]",–
C/C=C(\C)C(=O)Nc1cccc(C2=NOC3(C2)C[C@@H](C(N)=O)N(C(=O)c2cc([N+](=O)[O-])cc([N+](=O)[O-])c2C)C3)c1 (stereo partly drawn),"inconclusive: 11.7 µM [inhibitor, single point]",–
COc1ccc(C(=O)Nc2nc3ccccc3c(=O)[nH]2)cc1,–,inactive: 161%
O=C(COc1ccc(Cl)cc1)NCc1nnc(SCC(=O)N2CCCCCC2)o1,–,inactive: -1.71%
Nc1nc(Nc2ccccc2)nc(NCc2ccccc2)c1[N+](=O)[O-],"inconclusive: 18.5 µM [inhibitor, single point]",–
O=C(Nc1ccccc1N1CCCC1)C1CCN(S(=O)(=O)c2ccc(F)cc2)CC1,"inconclusive: 18.5 µM [inhibitor, single point]",–
COc1ccc(NC(=O)/C(=C/c2cccnc2)NC(=O)c2cccs2)cc1,–,inactive: -6.26%
CCOc1ccccc1C(=O)N1CCN(c2ccc(C(F)(F)F)cn2)CC1,–,inactive: 13.4%
CC(=O)c1ccc(-n2cc(-c3ccc(C(C)(C)C)cc3)[n+]3c2SCCC3)cc1,"inconclusive: 1.31 µM [inhibitor, partial curve]",–
CCC1CCCCN1C(=O)Cn1c(C(=O)OC)cc2sc(Cl)cc21 (stereo not drawn),"inconclusive: 18.5 µM [inhibitor, single point]",–
CCOC(=O)N1CCN(C(=O)COC(=O)c2cc(Cl)c(O)c(Cl)c2)CC1,"inconclusive: 0.131 µM [inhibitor, full curve, poor fit]",–
CC(C)c1ccccc1OCCNS(C)(=O)=O,–,inactive: 37.9%
Cc1cc(N(CCCl)CCCl)ccc1/C=N/NC(=O)c1ccco1,"inconclusive: 9.28 µM [inhibitor, partial curve, poor fit]",–
